Data published in PubChem BioAssay AID1159614 (National Center for Advancing Translational Sciences (NCATS), 2016).
Out of some 45,000 compounds screened, about 65 (0.1%) were called active. Calls follow the shape of the dose curve; as a rule, active = well fitted activation curve with a large enough effect; inconclusive = small, poorly fitted or top-dose-only effect; inactive = no such curve, though single readings can be large or run the other way. The list shows a part of the results.

biological target: Galactocerebrosidase (Homo sapiens) (UniProt P54803); assay: A Novel Cell-Based Assay to Identify Small Molecules for B -Galactocerebrosidase; conditions: 145M-Twi-hGALC-G270D cells (Twitcher mouse brain line with human GALC G270D), HMU-beta-Gal fluorescence, 48 h; series mostly up to 57.5 µM; activation: at the top concentration; also: nearly all actives have a fitted effect of over 65% in size; as to activation: 0% is about no effect
Outline: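 Fluorogenic HMU-b-Gal hydrolysis (0.1 mM final, pH 5.2 citrate-phosphate with 1 mg/mL sodium taurocholate; carbonate stop buffer) measures mutant GALC activity after compound treatment of live 145M-Twi Twitcher brain cells stably carrying human GALC-G270D, with wild-type GALC line alongside; activation sought.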
Potency is read from the fitted curve at half-maximal effect.

Chain of UniProt P54803 (P54803 whole entry, looked up): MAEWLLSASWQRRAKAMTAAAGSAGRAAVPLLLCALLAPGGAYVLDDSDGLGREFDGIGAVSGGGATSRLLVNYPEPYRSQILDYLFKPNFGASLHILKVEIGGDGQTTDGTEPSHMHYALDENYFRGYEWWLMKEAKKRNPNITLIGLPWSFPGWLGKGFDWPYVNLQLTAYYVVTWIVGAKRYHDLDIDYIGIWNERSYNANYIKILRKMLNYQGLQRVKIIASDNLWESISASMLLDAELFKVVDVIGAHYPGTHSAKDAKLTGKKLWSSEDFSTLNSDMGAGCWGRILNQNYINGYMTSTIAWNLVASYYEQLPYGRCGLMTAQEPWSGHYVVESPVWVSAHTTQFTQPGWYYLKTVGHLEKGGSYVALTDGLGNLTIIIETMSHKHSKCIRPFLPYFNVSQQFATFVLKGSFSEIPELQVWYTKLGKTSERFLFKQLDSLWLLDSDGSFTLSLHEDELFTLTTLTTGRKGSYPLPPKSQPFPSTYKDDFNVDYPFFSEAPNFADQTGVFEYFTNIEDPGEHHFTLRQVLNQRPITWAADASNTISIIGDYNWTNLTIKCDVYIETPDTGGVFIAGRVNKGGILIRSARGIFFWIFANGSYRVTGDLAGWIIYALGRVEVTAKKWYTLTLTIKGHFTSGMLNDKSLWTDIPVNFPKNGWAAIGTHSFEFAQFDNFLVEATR

SMILES	activation	Potency
CC(C)(C)OC(=O)N1CCC(c2c(C(=O)N3CCN(C(=O)c4ccco4)CC3)cnn2-c2ccc(F)cc2F)CC1	inactive: 4.64%	
CCOc1ccc(-n2nc3ccc(NC(=O)Cc4ccccc4)cc3n2)cc1	inactive: -25.1%	
CCCOC(=O)c1c(NC(=O)c2cc3ccccc3c(=O)o2)sc2c1CCC(C)C2 (centres undefined)	inactive: -13%	
COc1cc(NC(=O)c2nnn(CC(=O)Nc3cc(C)ccc3C)c2N)cc(OC)c1	inactive: -10%	
COc1cc(NC(=O)c2cc(-c3cccc(OC)c3)n[nH]2)cc(OC)c1	inactive: -5.36%	
CCOc1ccc(-n2c(SCC(=O)Nc3ccc(CC)cc3)nc3c(oc4ccccc43)c2=O)cc1	inactive: -2.27%	
CCOc1cc(C(=O)Nc2ccc3c(c2)n(C)c(=O)c(=O)n3C)cc(OCC)c1OCC	inactive: -21.2%	
O=C(Nc1ccc(OC(F)(F)F)cc1)c1noc2c1CCCC2	inactive: -15.9%	
CCOC(=O)CCc1c(C)nc2cc(-c3cc(OC)cc(OC)c3)[nH]n2c1=O	inactive: -9.68%	
CCC1=C(c2ccc(C)cc2)S(=O)(=O)N=C1N1CCC(C(=O)NCc2ccc(N(C)C)cc2)CC1	inactive: -24.9%	
CCN1C(=O)c2ccccc2Sc2ccc(NC(=O)Nc3cccc([N+](=O)[O-])c3C)cc21	inactive: -3.03%	
COc1ccc(CNC(=O)c2cnn3c(C)c(Cc4c(F)cccc4Cl)c(C)nc23)cc1	inactive: -20.9%	
COc1ccc(N(C(=O)c2ccc(C(C)(C)C)cc2)S(=O)(=O)c2ccc(Cl)cc2)cc1	inactive: -9.96%	
Cc1ccc(N2CC(NC(=O)c3cccc(Cl)c3)CC2=O)cc1C (centres undefined)	inactive: -9.17%	
CCOC(=O)c1c(C)oc2ncnc(Nc3cc(C)cc(C)c3)c12	inactive: -8.93%	
O=C(NCCc1csc2nc(-c3ccccc3F)nn12)C(=O)Nc1cc(F)ccc1F	inactive: -4.66%	
O=C(NCCCN1CCN(c2cccc(Cl)c2)CC1)c1cnn(-c2ccc(F)cc2)c1-n1cccc1	inactive: -30.6%	
CC1CCCN(C(=O)Cn2ncc3c([nH]c4ccccc43)c2=O)C1 (centres undefined)	inactive: -4.44%	
CCc1ccccc1Nc1sc(C(=O)c2cccc(OC)c2)c(N)c1S(=O)(=O)c1ccccc1	inactive: -13%	
COC(=O)c1c(NC(=O)/C(C#N)=C/c2ccccc2)sc2c1C(C(=O)OC)CC2 (centres undefined)	inactive: -5.16%	
CCCCOc1ccc(C(=O)NCc2nnnn2-c2ccc(C)c(C)c2)cc1	inactive: 5.9%	
COc1ccc(C2c3c(n(C)c4ccccc34)C(=O)N2CC(=O)Nc2cccc(Cl)c2C)cc1 (centres undefined)	inactive: -20.4%	
Cc1cccc(N2CCN(C(=O)c3cnc(N4CCCC4)nc3C)CC2)c1C	inactive: -8.05%	
COc1cc(O)cc(O)c1	inactive: -8.23%	

SMILES	activation	Potency
COc1ccc(OCc2ccc(-c3nc(C#N)c(N4CCCCC4)o3)o2)cc1	inactive: -12.4%	
Cc1ccccc1OCC(=O)N1CCC(c2nc3ccccc3s2)CC1	inactive: -9.65%	
CCCSc1ncc(Cl)c(C(=O)N(Cc2ccc(Cl)cc2)Cc2ccco2)n1	inactive: -0.0405%	
CCc1ccccc1NC(=O)Cn1c(=O)ccc2cc(S(=O)(=O)N3CCCC3)ccc21	inactive: -10.5%	
CCOC(=O)N1CCc2c(sc3c2c(=O)n(-c2ccc(CC)cc2)c(=O)n3C)C1	inactive: -12.9%	
COc1ccc(S(=O)(=O)N2Cc3ccccc3CC2C(=O)Nc2ccc(C)cc2C)cc1OC (centres undefined)	inactive: -20%	
CCOC(=O)c1c(C)[nH]c(C)c1S(=O)(=O)N1CCC(C(=O)NCc2cccc(OC)c2)CC1	inactive: -9.96%	
CCC1CCCCN1S(=O)(=O)c1cc2c3c(c1)CC(=O)N3CCC2 (centres undefined)	inactive: -12%	
CCC(C(=O)O)n1ccc2cc(S(=O)(=O)N3CCCCC3)ccc21 (centres undefined)	inactive: -6.55%	
Cc1c(C(=O)N(C)C)sc2c1c(=O)n(-c1ccc(Cl)cc1)c(=O)n2CC(=O)C(C)(C)C	inactive: 3.88%	
COc1ccc(C(=O)c2c(N)c(C(=O)Nc3cccc(OC)c3)c3ccccn23)cc1	inactive: -12%	
COc1ccc(-n2c(=O)c3sc4ccccc4c3n(Cc3ccccc3C)c2=O)cc1OC	inactive: -13.5%	
Cc1ccc(NC(=O)Cn2nc(N3CCN(c4ccccc4)CC3)ccc2=O)cc1F	inactive: -10.8%	
Cc1ccc(C)c(NC(=O)Cn2cc(S(=O)(=O)Cc3cccc(Cl)c3)c3ccccc32)c1	inactive: -7.33%	
CCc1ccc(NC(=O)CN2C(=O)CSc3ccc(S(=O)(=O)N(C)C)cc32)cc1	inactive: -6.95%	
Cc1ccccc1C(=O)Nc1cccc(OCc2cc(=O)n3cccc(C)c3n2)c1	inactive: -2.54%	
CC1CCCN(CCCNC(=O)c2ccc3c(c2)N(Cc2ccc(Cl)cc2)C(=O)c2ccccc2S3(=O)=O)C1 (centres undefined)	inactive: 0.394%	
Cc1cc(OC(C)C(=O)N(Cc2ccc(N(C)C)cc2)Cc2ccco2)ccc1Cl (centres undefined)	inactive: -18.3%	
COc1ccc2cc3c(N)nn(C(=O)c4ccccc4Cl)c3nc2c1	inactive: -14.3%	
COc1ccc(-c2noc(CN(C(=O)C(C)Oc3ccc(C)cc3)C(C)C)n2)cc1 (centres undefined)	inactive: -10.6%	
CC(=O)O[C@]1(C(C)=O)CC[C@H]2[C@@H]3C=C(Cl)C4=CC(=O)CC[C@]4(C)[C@H]3CC[C@@]21C	inactive: -12.7%	
CCn1cc(C(=O)NCCc2ccc(OC)c(OC)c2)c(=O)c2cc(S(=O)(=O)N(C)C3CCCCC3)ccc21	inactive: 1.83%	
CCOc1ccc(NC(=O)N2CCN(c3ccc(Cl)c(Cl)c3)CC2)cc1	inactive: -8.41%	
O=C(NCc1ccccc1)c1ccc2c(c1)CCN2S(=O)(=O)c1ccc(Cl)cc1	inactive: -9.49%	

SMILES	activation	Potency
Cc1ccccc1CNC(=O)CCS(=O)(=O)c1cc2c3c(c1)CCN3C(=O)CC2	inactive: -17.3%	
CCOc1cccc(CNC(=O)c2ccc(N3CCCC3)c(NC(=O)NCc3ccccc3)c2)c1	inactive: -23.8%	
Cn1nnc2c(N3CCN(c4ccc(F)cc4)CC3)ncnc21	inactive: -4.48%	
COc1ccc(Cl)cc1NC(=O)Cn1ccn(-c2cc(C)cc(C)c2)c(=O)c1=O	inactive: -4.46%	
CCc1ccc(NCc2cc3ccc(OC)cc3n(CC(=O)Nc3c(C)cc(C)cc3C)c2=O)cc1	inactive: -17.1%	
CC(C)Oc1ccc(C(=O)N(Cc2ccc(N(C)C)cc2)C2CCS(=O)(=O)C2)cc1 (centres undefined)	inactive: -10.7%	
CCCNC(=O)NS(=O)(=O)c1ccc(Cl)cc1	inactive: -10.8%	
CCc1ccc(CNC(=O)Cn2nc(-c3ccc(C)cc3)ccc2=O)cc1	inactive: -8.44%	
COc1ccccc1N1CCN(C(=O)CCS(=O)(=O)c2ccc3c(c2)oc(=O)n3C)CC1	inactive: -2.15%	
Cc1ccc(N2CCN(C(=O)c3cc4cc5ccc(C)cc5nc4s3)CC2C)cc1 (centres undefined)	inactive: -8.11%	
Fc1ccc(-n2ncc3c(Nc4ccc5c(c4)OCCO5)ncnc32)cc1	inactive: -5.79%	
Cc1ccc(Nc2sc(C(=O)c3ccccc3)c(N)c2S(=O)(=O)c2ccccc2)cc1Cl	inactive: -18.5%	
CCOC(=O)c1nc(Nc2ccc(C(=O)OC(C)C)cc2)c2ccccc2n1	inactive: -7.21%	
COc1ccccc1NC(=O)c1oc2ccccc2c1NC(=O)Cc1ccccc1	inactive: -19.3%	
COc1ccc(-c2noc(CSc3nnc(C)n3-c3cccc(C)c3)n2)cc1	inactive: -20.5%	
COc1ccc(O)c(C2=Nc3ccccc3N=C(c3ccccc3)C2)c1	inactive: -3.11%	
COc1cc(C(=O)NCCc2csc(-c3ccc(Cl)cc3)n2)cc(OC)c1OC	inactive: -5.39%	
O=C(CN1C(=O)CC(c2ccccc2)=Nc2ccccc21)Nc1ccc(Br)cc1	inactive: -14.8%	
CNC(=O)c1ccc2c(c1)N(Cc1cc(C)ccc1C)C(=O)c1ccccc1S2	inactive: -16.2%	
CCCN1CCN(C(=O)Cn2c(-c3cccs3)cc3cc(F)ccc32)CC1	inactive: 2.25%	
Cc1ccc2c(c1)N(C(=O)Nc1cccc3c1CCCC3)CCO2	inactive: -16.7%	
O=C(NCCc1ccccc1)c1ccc(Nc2nc3ccccc3n3nnnc23)cc1	inactive: -3.43%	
Cc1cccc(CCNC(=O)c2cc3c(s2)-c2c(C)cccc2OC3)c1	inactive: -7.59%	
COc1ccc(CNC(=O)c2ccc(-c3nc(CSc4ccc(C)cc4)c(C)o3)cc2)c(OC)c1	inactive: -30%	

SMILES	activation	Potency
COc1ccc(C2c3c(n(C)c4ccccc34)C(=O)N2CC(=O)Nc2cccc(Cl)c2)cc1 (centres undefined)	inactive: -19.5%	
CCOC(=O)c1c(NC(=O)CSc2cn(CCNC(=O)c3ccc(OC)cc3)c3ccccc23)sc2c1CCCC2	inactive: -25.4%	
CCc1ccc(S(=O)(=O)c2cn(C)c3cc(N4CCCC4)c(F)cc3c2=O)cc1	inactive: -14.4%	
COc1ccc(C(=O)Nc2ccc3c(c2)CCCN3S(=O)(=O)c2ccc(C)cc2)c(OC)c1	inactive: 11.2%	
CN(Cc1ccccc1)c1ccc(-c2nc(-c3ccncc3)no2)cc1[N+](=O)[O-]	inactive: -31.8%	
Cc1cc(C)cc(C(=O)NCC(c2ccc(N(C)C)cc2)N2CCCC2)c1 (centres undefined)	inactive: -12.7%	
O=C(NCCC1=CCCCC1)C1CCN(C(=O)N2CCOc3ccc(Cl)cc32)CC1	inactive: -10.6%	
COc1cccc(NC(=O)C2CCCN(S(=O)(=O)c3cccc4nonc34)C2)c1 (centres undefined)	inactive: -8.93%	
Cc1cn2c(=O)c(S(=O)(=O)Nc3ccc(F)cc3F)c(C)nc2s1	inactive: -5.58%	
CCOc1ccc(C(=O)NCCc2csc(-c3cccc(F)c3)n2)cc1OCC	inactive: -9.48%	
CCOC(=O)CC(NC(=O)CCc1c(C)nc2ncnn2c1C)c1ccc(C)cc1 (centres undefined)	inactive: -14.4%	
COC(=O)c1nnn(-c2ccc(Br)cc2)c1C(=O)OC	inactive: -21.7%	
O=C(NCc1ccco1)c1ccc2c(c1)N(Cc1ccc(Cl)cc1)C(=O)c1ccccc1S2(=O)=O	inactive: -3.95%	
O=C(NCc1ccc(Cl)cc1)c1ccc(Cn2c(=O)c3cccn3c3cccnc32)cc1	inactive: -0.432%	
COCCCNC(=O)c1ccc2c(c1)N(Cc1ccccc1F)C(=O)c1ccccc1S2=O (centres undefined)	inactive: 0.135%	
CCOc1ccc(N2C(=O)c3[nH]nc(-c4ccc(OC)cc4)c3C2c2cccs2)cc1 (centres undefined)	inactive: -8.77%	
COc1ccc(-c2nnc(SCC(=O)Nc3ccc(C)c(C)c3)s2)cc1	inactive: -14.2%	
Cc1ccc(C)c(Nc2nnc(-c3ccc(C)c(S(=O)(=O)NCC4CCCO4)c3)c3ccccc23)c1 (centres undefined)	inactive: -22.8%	
O=C(Cn1c(=O)n(Cc2nc(-c3ccccc3)no2)c(=O)c2ccccc21)Nc1cccc(Cl)c1	inactive: -19.4%	
COc1ccc(S(=O)(=O)N2CCN(Cc3nc4ccc(C)cc4o3)CC2)cc1	inactive: -9.46%	
O=C1CCc2cc(S(=O)(=O)NC(C(=O)Nc3cccc(F)c3)c3ccccc3)ccc2N1 (centres undefined)	inactive: -12.2%	
COc1ccc(-c2c(C)c3ccc(O)c(CN4CCCC(C)C4)c3oc2=O)cc1OC (centres undefined)		active: 20 µM
